The supplement of paper PMC12217912
The other results are listed elsewhere or left out. The full chains were built here from the parent and the listed change. Inactive controls read about 0.05.

B1: TEV protease; numbered along this chain (parent)
chain: MGESLFKGPRDYNPISSSICHLTNESDGHTTSLYGIGFGPFIITNKHLFRRNNGTLVVQSLHGVFKVKDTTTLQQHLVDGRDMIIIRMPKDFPPFPQKLKFREPQREERICLVTTNFQTKSMSSMVSDTSCTFPSGDGIFWKHWIQTKDGQCGSPLVSTRDGFIVGIHSASNFTNTNNYFTSVPKNFMELLTNQEAQQWVSGWRLNADSVLWGGHKVFMVKPEEPFQPVKEATQL

Variants of: B1
Test: raw area under fraction-flipped curve 0-4 h after induction (AUC4h, not background-subtracted), DNA-recorder readout of cleavage of the substrate (dimensionless); higher = more cleavage of the substrate by the protease variant
Conditions: temperature: 34 °C; time window: 0-4 h after rhamnose induction
Description: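 In vivo DNA recorder in E. coli TOP10(DE3) ΔrhaA at 34 °C. Each TEVp single-site mutant (parent TEVp 0) is paired with a single-site variant of the 7-mer TEVs (canonical ENLYFQ|S). The substrate sits between flexible linkers in a Bxb1-sfGFP-TEVs-SsrA fusion, so cleavage stabilises Bxb1 and speeds flipping of a recombination array, read by NGS. The value is the raw area under the fraction-flipped curve over 0-4 h after rhamnose induction (AUC4h), with ≥20 reads per time point. It is not background-subtracted; inactive controls average about 0.047.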
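Note: Bxb1 expression induced with 0.2% (w/v) L-rhamnose at OD600 near 0.5, cultures sampled hourly, flipped fraction per protease–substrate barcode pair counted by paired-end Illumina sequencing.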

Row | Variant | area with substrate EALYFQS | area with substrate EDLYFQS | area with substrate EFLYFQS | area with substrate EGLYFQS | area with substrate EHLYFQS | area with substrate EILYFQS | area with substrate ELLYFQS | area with substrate EPLYFQS | area with substrate EQLYFQS | area with substrate ERLYFQS | area with substrate ESLYFQS | area with substrate EVLYFQS | area with substrate EWLYFQS | area with substrate EYLYFQS | area with substrate ECLYFQS | area with substrate EELYFQS | area with substrate EKLYFQS | area with substrate EMLYFQS | area with substrate ETLYFQS
1 | R81H | 0.0921 | 0.113 | 0.0945 | 0.0748 | 0.106 | 0.108 | 0.07 | 0.118 | 0.123 | 0.0942 | 0.0863 | 0.0839 | 0.0862 | 0.102 | – | – | – | – | –
2 | L73V | 0.117 | 0.11 | 0.0884 | 0.0894 | 0.0911 | 0.0998 | 0.0798 | – | – | 0.0886 | 0.0921 | 0.0888 | 0.0813 | – | 0.121 | 0.101 | 0.094 | 0.087 | 0.109
3 | R106Q | 0.108 | 0.117 | 0.0863 | 0.0213 | 0.101 | 0.0893 | 0.111 | 0.122 | 0.122 | 0.102 | 0.101 | 0.0935 | 0.0901 | 0.103 | 0.109 | 0.129 | 0.109 | – | 0.094
4 | R106K | 0.123 | – | 0.105 | 0.106 | – | 0.101 | – | 0.112 | 0.14 | – | 0.112 | – | 0.126 | 0.0946 | 0.101 | 0.133 | – | – | –
5 | R106G | 0.0977 | 0.148 | – | – | – | – | – | – | 0.136 | – | 0.0929 | – | – | – | – | – | 0.0849 | – | –
6 | S121Q | 0.145 | 0.112 | 0.107 | 0.119 | 0.12 | 0.103 | 0.0908 | 0.104 | 0.122 | 0.104 | 0.101 | 0.0945 | – | 0.104 | 0.11 | 0.114 | 0.116 | – | 0.102
7 | L77F | 0.0663 | 0.0689 | 0.0238 | 0.0521 | 0.0733 | 0.0614 | 0.0662 | 0.0672 | 0.0607 | 0.0619 | 0.0611 | 0.0801 | 0.0639 | 0.0657 | 0.0616 | 0.0687 | 0.122 | 0.0532 | –
8 | M88R | 0.0628 | 0.0507 | – | 0.0479 | – | 0.0605 | – | 0.0654 | 0.0466 | 0.0324 | 0.101 | 0.0479 | 0.0403 | – | 0.0665 | – | 0.036 | 0.0763 | –
9 | M88P | 0.0936 | 0.0872 | – | 0.0575 | 0.0919 | – | – | 0.102 | 0.0859 | 0.0811 | 0.0728 | 0.0853 | 0.0759 | 0.0952 | 0.102 | 0.0982 | 0.0855 | – | –
10 | M88N | 0.0962 | – | – | 0.0828 | 0.0785 | 0.0736 | 0.0763 | 0.0833 | 0.113 | 0.0805 | 0.0983 | 0.0723 | – | – | 0.0795 | 0.121 | 0.0786 | 0.0918 | –
11 | M88F | 0.0979 | – | 0.0567 | 0.0935 | – | 0.0648 | – | – | 0.093 | – | – | 0.0721 | 0.0738 | 0.072 | – | – | – | – | 0.0544
12 | M88V | 0.134 | 0.155 | – | – | 0.025 | 0.102 | 0.0874 | 0.123 | 0.104 | – | 0.0971 | 0.0928 | 0.116 | – | 0.101 | – | 0.104 | 0.0861 | –
13 | G80V | 0.123 | 0.123 | – | 0.102 | 0.119 | 0.0902 | – | 0.117 | 0.142 | 0.1 | 0.104 | 0.0807 | 0.089 | 0.111 | 0.0938 | 0.141 | 0.11 | 0.107 | 0.101
14 | G80W | 0.133 | – | 0.0844 | 0.102 | 0.112 | 0.0774 | 0.102 | 0.136 | 0.136 | 0.0441 | 0.0825 | 0.102 | – | – | – | – | 0.121 | 0.11 | –
15 | G80Q | 0.142 | 0.127 | – | – | 0.128 | 0.078 | – | 0.136 | 0.078 | – | 0.0958 | 0.0792 | 0.0755 | 0.112 | 0.14 | 0.116 | 0.103 | 0.111 | 0.122
16 | G80D | 0.122 | 0.144 | – | – | – | 0.126 | – | – | 0.165 | 0.134 | 0.119 | 0.106 | 0.115 | – | – | – | 0.118 | 0.143 | –
17 | G80I | 0.131 | 0.174 | – | – | – | 0.0999 | 0.137 | 0.12 | 0.118 | 0.115 | 0.124 | – | 0.098 | 0.184 | 0.119 | – | – | 0.113 | –
18 | G80E | 0.149 | 0.163 | – | – | 0.0848 | 0.105 | 0.0941 | 0.183 | 0.17 | – | – | – | – | 0.124 | 0.112 | 0.139 | 0.119 | 0.176 | –
19 | Q75N | 0.0991 | 0.0838 | – | – | – | – | 0.062 | – | – | 0.0418 | 0.0793 | – | 0.0684 | – | 0.0931 | 0.0337 | – | – | –
20 | R102G | 0.0697 | 0.0596 | 0.0682 | 0.0645 | 0.0359 | 0.0459 | 0.0527 | 0.0721 | – | 0.0637 | 0.0468 | 0.0571 | 0.0533 | – | 0.0423 | 0.0419 | 0.0585 | – | 0.0717
21 | R102I | 0.0635 | 0.0417 | 0.0683 | 0.0519 | 0.0541 | 0.0484 | 0.0526 | 0.0503 | 0.0496 | 0.0458 | 0.0531 | 0.0556 | 0.0612 | – | 0.0459 | 0.0524 | 0.0419 | 0.0595 | 0.0358
22 | I110V | 0.121 | 0.124 | 0.0952 | 0.0862 | 0.105 | 0.0658 | 0.0961 | – | – | 0.101 | 0.0996 | 0.0996 | 0.0913 | 0.0911 | 0.0696 | 0.14 | 0.103 | 0.135 | –
23 | F117V | 0.109 | 0.0979 | 0.115 | 0.138 | 0.119 | 0.0975 | 0.0822 | 0.114 | 0.117 | 0.108 | 0.13 | 0.115 | 0.0925 | 0.125 | 0.105 | 0.123 | 0.111 | 0.116 | 0.122
24 | K98W | 0.183 | 0.121 | 0.0887 | 0.0957 | 0.0945 | 0.0969 | 0.0841 | 0.121 | 0.118 | 0.0968 | 0.111 | 0.099 | 0.102 | – | 0.117 | 0.118 | 0.111 | – | –
25 | H76C | 0.167 | 0.098 | 0.0937 | 0.106 | 0.122 | 0.109 | 0.0936 | 0.121 | 0.0984 | 0.115 | 0.114 | 0.0968 | 0.13 | 0.0848 | 0.12 | 0.12 | 0.139 | 0.133 | 0.123
